Drawing on PubChem BioAssay AID485344 (National Center for Advancing Translational Sciences (NCATS), 2010), this text covers inhibition for 97 compounds.

Several values for one entry are separate records, joined by “and”; a condition that tells them apart may be missing. Identical values can stand only once. About 6,900 (2%) of roughly 340,000 compounds were called active. Cut-off read from the data, not from the text of the source: active = inhibition above about 30%; inactive = below that, where a call was filed. The entries are a selection whose mix differs from that of the whole data set. Where no call is shown, the source filed none.

The target in this assay is D(2) dopamine receptor (Homo sapiens) (UniProt P14416). Description: HTS Assay for Allosteric Antagonists of the Human D2 Dopamine Receptor: Primary Screen for Antagonists. Note: 0% is about no effect. As to conditions: HEK293 TREx D2 cells, calcium flux, dopamine EC80; at 10 µM; stronger effect = higher value. Put shortly: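 Calcium flux kinetic readout in an inducible HEK293 TREx D2 line plated overnight at 30 C. After 180 s compound exposure, an EC80 dopamine challenge follows with another 180 s kinetic read to detect antagonism.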
UniProt P14416, sequence (P14416 whole entry, looked up): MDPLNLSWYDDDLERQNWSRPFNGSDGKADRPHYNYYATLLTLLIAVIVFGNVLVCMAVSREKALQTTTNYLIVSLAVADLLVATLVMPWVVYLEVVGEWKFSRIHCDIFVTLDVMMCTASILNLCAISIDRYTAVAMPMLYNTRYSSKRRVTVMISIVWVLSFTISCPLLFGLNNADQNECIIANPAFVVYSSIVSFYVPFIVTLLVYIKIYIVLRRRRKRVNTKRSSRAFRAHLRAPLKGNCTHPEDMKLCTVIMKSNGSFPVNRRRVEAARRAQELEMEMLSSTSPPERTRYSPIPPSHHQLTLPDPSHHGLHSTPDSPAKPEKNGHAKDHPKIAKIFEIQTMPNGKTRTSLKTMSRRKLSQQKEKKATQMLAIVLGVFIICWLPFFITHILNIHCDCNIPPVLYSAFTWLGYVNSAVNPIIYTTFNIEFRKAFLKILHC
For orientation: inhibition means the change of the read-out against control, counted positive when it falls. Take `Cc1ccccc1OCC(=O)Nc1c(C)ccc2nsnc12`: the inhibition was 6.93%. `CC1CCN(S(=O)(=O)c2ccc3c(ccn3CC(=O)NCc3ccc(N(C)C)cc3)c2)CC1`: the inhibition was found to be 1.17%. For the compound `CC(C)c1ccc(S(=O)(=O)c2nnn3c2nc(N2CCOCC2)c2sccc23)cc1`, the inhibition is -9.17%.

Consider `COc1ccc(C(=O)Nc2cc(C)ccc2NC(=O)COc2ccccc2)cc1`, for which the inhibition was active: 44.4%. Consider `CCCCCn1c(=O)[nH]c2cc(C(=O)NCc3ccc(F)cc3)ccc2c1=O`, for which the inhibition stood at 3.05%. Next, `Cc1cccc(-n2c(=O)c3c(c4cc(C)ccc4n3C)n(CC(=O)Nc3ccccc3Cl)c2=O)c1`: -11%; `COCCNC(=O)c1ccc2c(c1)N(Cc1ccc(C(F)(F)F)cc1)C(=O)c1ccccc1S2`: 2.11%; `CC(NC(=O)c1ccc(CSc2nc3ccncc3n2Cc2ccc(F)cc2)cc1)c1ccccc1` (configuration not stated): 5.57%. Regarding `O=S(=O)(c1ccccc1)c1nc(-c2cccs2)oc1N1CCCCC1`, the inhibition amounted to 10.2%. Next, `Cc1ccc2c(c1)C(O)(CC(=O)/C=C/C=C/c1ccccc1)C(=O)N2` (configuration not stated): active: 45.3%; `Cc1cccc(OCCCSc2nc(-c3ccc(C(C)(C)C)cc3)nc3cc(=O)[nH]n23)c1C`: 4.21%; `CCCCCN1CC(O)=C(c2nc3ccccc3[nH]2)C1=N`: active: 38.9%.

In the case of `CCN(CC)S(=O)(=O)c1cc(C(=O)OCC(=O)NC2CCCc3ccccc32)ccc1C` (configuration not stated), the inhibition is active: 36.8%.

`Cc1nn(CCC(=O)NCc2cccc(Br)c2)c(=O)c2nn(-c3ccccc3)c(C)c12`: the inhibition worked out at 5.64%. On to `O=C(c1ccc(CS(=O)c2ccccc2Cl)o1)N1CCN(c2cccc(C(F)(F)F)c2)CC1` (configuration not stated), for which the inhibition came to 13.6%.

As for `CC(C)OCCCn1c(SCC(N)=O)nc2c(sc3ccccc32)c1=O`, the inhibition is -10.5%. With `O=C(NCCCCc1ccccc1)c1nn(-c2ccccc2F)nc1CO`, the inhibition worked out at 7.35%. For the compound `CCn1c(=O)c2sccc2n2c(CCC(=O)N3CCN(c4ccccc4OC)CC3)nnc12`, the inhibition was 23.2%. Next, `COc1ccc(-c2nnc(SCC(=O)Nc3ccccc3C)o2)cc1OC`: -4.07%; `COc1ccc(CN2CCN(C(=O)c3ccco3)CC2)cc1OCc1ccccc1`: active: 70.8%; `CC(C)NC(=O)Cn1ccc2cc(S(=O)(=O)N3CCCCCC3)ccc21`: -0.0928%. Next, `COc1ccc(-c2cn(-c3ccc(C)cc3)c(S(=O)(=O)CC(=O)Nc3ccccc3)n2)cc1`: -14.2%; `CCOc1ccccc1CNC(=O)CCCN1C(=O)COc2ccc(C)cc21`: -10.5%. The value for `Cc1cc(Br)ccc1NC(=O)c1coc(=O)c2ccccc12` was 7.63%. `Cc1ccc(CNC(=O)CN(C)S(=O)(=O)c2ccc(Br)s2)cc1`: the inhibition worked out at 10.8%. As for `CC(C)c1ccccc1NC(=O)CSc1nnc(COc2ccccc2)o1`, the inhibition worked out at 8.67%. On to `Cc1oc2ncn(CC(C)C)c(=O)c2c1C(=O)Nc1cccc(C(F)(F)F)c1`, for which the inhibition is -1.37%.

Consider `CCN1CCc2c(sc(NC(=O)Nc3ccc(Cl)c(Cl)c3)c2C(N)=O)C1`, for which the inhibition is active: 72.5%. Next, `O=C(O)Cc1sc(Nc2ccc(C(=O)O)cc2)nc1-c1ccccc1`: -17.1%. `CCOC(=O)c1noc2ncn(CC(=O)Nc3cc(Cl)ccc3OC)c(=O)c12`: the inhibition was found to be 7.7%.

Regarding `O=C(Cn1cnc2onc(-c3ccc(F)cc3)c2c1=O)N1CCN(c2ccccc2F)CC1`, the inhibition was -7.18%. `COc1ccc2c(c1)CCc1c(C(=O)Nc3c(C)nn(Cc4c(Cl)cccc4Cl)c3C)noc1-2`: the inhibition is -2.71%. The value for `COc1cc(-c2nnc(NC(=O)CCS(=O)(=O)c3ccccc3)o2)cc(OC)c1OC` was active: 41.2%. `COc1ccccc1N1CCN(CCCNc2cc(=O)n(C)c(=O)n2C)CC1`: the inhibition was active: 64.1%. Next, `O=C(c1cccs1)c1cn(CCOc2ccc(F)cc2)c2ccccc12`: 13.1%; `CCc1ccccc1NC(=O)c1cc2sc(Cl)cc2n1CC`: -3.9%. Next, `CCOC(=O)c1c(C)[nH]c(C)c1S(=O)(=O)NCC(=O)Nc1ccc(CC)cc1`: -1.23%; `COc1cc(-c2nc3ccc(Cl)cn3c2Nc2ccc3c(c2)OCO3)ccc1O`: -13.3%; `Cc1ccc(NC(=O)c2cc(CN3CCOCC3)on2)cc1Cl`: 1.73%. Consider `Nc1nn(-c2ccccc2)nc1C(=O)OCc1ccccc1Br`, for which the inhibition worked out at 6.44%. Regarding `CC1=C(C(=O)Nc2ccc(C)cc2Cl)C2(CCCCC2)OC1=O`, the inhibition was -9.03%. For `Cc1cc2c(cc1[N+](=O)[O-])NC(CNC(C)C)CC2` (configuration not stated), the inhibition was active: 64.8%.

Turning to `COc1cc2ccccc2cc1C(=O)Nc1cccc(-c2nc3ccccc3o2)c1`, the inhibition was 9.9%.

Turning to `COc1ccc(N2CCN(C(=O)c3cn(C)c4ccc(S(=O)(=O)N(C)C5CCCCC5)cc4c3=O)CC2)cc1`, the inhibition was -5.58%. Next, `CC(C(=O)NCc1cccc(Br)c1)n1ncn2cccc2c1=O` (configuration not stated): -12.9%; `Cc1ccc(NC(=O)c2c(C(=O)Nc3ccccc3)sc3nc(C)cc(=O)n23)cc1`: 13.2%; `COc1ccc(CNC(=O)C2CCN(S(=O)(=O)c3c(C)noc3/C=C/c3cccs3)CC2)cc1`: 10.6%. The value for `Fc1ccc(N2CCN(Cc3c[nH]c4ccccc34)CC2)cc1` was active: 92.8%; that for `Cc1ccccc1NC(=O)CCOc1ccccc1` was -8.39%.

Regarding `CCCOc1ccc(C(=O)Nc2sc3c(c2C(=O)OCC)CCCCC3)cc1`, the inhibition is 17.4%. Next, `O=C1CC(c2ccc(F)cc2)c2c(n3c(nc4ccccc43)[nH]c2=O)N1` (configuration not stated): -20.9%; `CCc1ccc(CNC(=O)C2CCN(C(=O)c3ccc(-n4ccc5ccccc54)s3)CC2)cc1`: 3.41%; `Cc1ccccc1CS(=O)(=O)c1ncc(Cl)c(C(=O)Nc2nnc(C(C)C)s2)n1`: 11%.

As to `Cc1oc(-c2cccc(Br)c2)nc1CSc1nc2ncccc2[nH]1`, the inhibition was -2.36%. For the compound `Cc1cccc(N2CCN(C(=O)CN3C(=O)COc4ccc(S(=O)(=O)N5CCCC5)cc43)CC2)c1C`, the inhibition was -0.362%. Next, `CCOc1ccc(CCNC(=O)Cn2nc(CC)n3c(cc4c(OC)cccc43)c2=O)cc1OCC`: -4.86%; `Cc1nn(CC(C)C(=O)N2CCN(S(=O)(=O)c3ccc(Cl)cc3)CC2)c(C)c1C` (configuration not stated): active: 31.5%.

Regarding `N#C/C(=C\c1c(Oc2ccc(F)cc2)nc2ccccn2c1=O)c1nc2ccccc2s1`, the inhibition was -26.4%. In the case of `CCC(=O)OC1=CN(Cc2ccccc2)S(=O)(=O)c2ccccc21`, the inhibition is -18.1%.

As for `CC(C)c1ccc(NC(=O)CN2C=NS(=O)(=O)c3ccccc32)cc1`, the inhibition is -13%.

As for `CCC(=O)C1=C(c2ccc(F)cc2)N(C(=O)CC)n2c(nnc2C2CCCCC2)S1`, the inhibition is -5.15%. The value for `Cc1cc(C)cc(NC(=O)CSc2nnc(CNC(=O)c3c(F)cccc3Cl)o2)c1` was -0.48%. Turning to `COC(=O)c1cc2oc(C)cc2n1Cc1ccc(C)cc1`, the inhibition was 0.12%. Next, `CCOC(=O)c1cc(OC(=O)c2cccc(F)c2)n(-c2ccccc2)n1`: 14.8%; `CC(C)c1ccc(-c2noc(SCC(=O)N(C)c3ccc(F)cc3)n2)cc1`: 1.38%; `CC(=O)N1CCCc2ccc(NC(=O)c3ccc(C(F)(F)F)cc3)cc21`: 12.8%. Take `Cc1ccccc1-c1noc(-c2ccc(N3CCCC3)c([N+](=O)[O-])c2)n1`: the inhibition is -15.9%.

Take `CCOc1ccc(N(C(=O)c2ccc(OC)cc2)S(=O)(=O)c2ccc3c(c2)n(C)c(=O)n3C)cc1`: the inhibition is -0.101%. Take `O=C(NCc1cccnc1)C1CCN(Cc2cc3ccccc3n2Cc2ccccc2)CC1`: the inhibition is -1.25%.

On to `O=C(NCc1ccccc1Cl)C(=O)NCC(c1cccs1)S(=O)(=O)c1ccccc1` (configuration not stated), for which the inhibition stood at 12.8%. On to `O=c1cc(CN2CCN(C/C=C/c3ccccc3)CC2)c2cc(O)ccc2o1`, for which the inhibition was active: 82.5%. In the case of `N#C/C(=C\c1ccc(-c2ccc(Cl)c(C(=O)O)c2)o1)c1nc2ccccc2[nH]1`, the inhibition came out at 9.82%. The value for `Cc1ccccc1NC(=O)CN1CCc2ccccc2C1` was active: 40.1%; that for `COc1ccc2c(c1)Cc1sc(NC(=O)c3ccc(Cl)cc3)nc1-2` was -8.79%; that for `Cc1cccn2c(=O)c3cc(C(=O)NC(C)c4ccccc4)c(=N)n(CCOCCO)c3nc12` (configuration not stated) was -5.05%.

For `CCOc1ccccc1N1CC(c2nc3ccccc3n2CCOc2ccccc2OC)CC1=O` (configuration not stated), the inhibition was -8.38%.

With `COc1ccc(-c2nnc(SCC(=O)c3ccc([N+](=O)[O-])cc3)o2)cc1OC`, the inhibition was -6.09%. Next, `CC(=O)N1CCc2cc(S(=O)(=O)CCC(=O)N3CCN(c4ccccc4F)CC3)ccc21`: 20.5%. With `Cc1cc(Nc2ccc(Cl)cc2)n2cnnc2n1`, the inhibition is -10.8%. With `COc1ccccc1Cc1nc2ccccc2nc1SCC(=O)N1CCCc2ccccc21`, the inhibition came out at 13.3%. Next, `Cc1ccccc1-c1noc(-c2cc(C(C)C)[nH]n2)n1`: -12%; `COc1ccc(Cl)cc1NC(=O)c1c(NCc2cccs2)sc2c1CCCC2`: 3.89%; `Cc1cccc(-n2ncc(C(=O)Nc3ccc4c(c3)OCO4)c2C2CCN(C(=O)OC(C)(C)C)CC2)c1`: -1.84%. Turning to `Cc1ccc(S(=O)(=O)Nc2c(C)nc3nc(C)[nH]n3c2=O)c(C)c1`, the inhibition is -15.2% and active: 35.5%. The value for `Oc1ccc(NCc2ccccc2OCc2ccccc2Cl)cc1` was 5.7%; that for `Cc1ccc(COc2cccc3cc(-c4noc(-c5ccc(C)cc5)n4)c(=O)oc23)cc1` was 16.8%. For the compound `Cc1ccc(C(=O)c2oc3ccccc3c2NC(=O)COc2ccc(C(C)(C)C)cc2)cc1`, the inhibition amounted to 1.51%. The value for `Cc1ccc(NC(=O)Cn2cnc3c(oc4ccccc43)c2=O)cc1` was -4.34%; that for `CC(C)C(=O)c1cc2c(cc1NC(=O)c1ccccc1F)OCCO2` was 8.61%; that for `COC(=O)c1ccc(NC(=O)CSc2nc3c(c(=O)n(C)c(=O)n3C)n2Cc2ccccc2)cc1` was -7.28%. The value for `COc1ccc(C(=O)NCc2nnc(SCC(=O)Nc3ccc(F)cc3)n2-c2ccccc2)cc1` was -14.3%. Regarding `Cc1ccc(Cn2c(C)c3cnn(CC(=O)N4CCN(c5ccc(F)cc5)CC4)c(=O)c3c2C)cc1`, the inhibition is -12%.

`O=C(/C=C/c1ccccc1)N1CCN(Cc2cc(=O)n3nc(-c4ccccc4Cl)sc3n2)CC1`: the inhibition stood at 9.76%.

Turning to `COc1cc(OC)c(NC(=O)c2cn(C)c(=O)c3cc(OC)c(OC)cc23)cc1Cl`, the inhibition is 0.108%. As for `Cc1ccc(O)c(NC(=O)CCSc2nc(-c3ccco3)cc(C(F)(F)F)n2)c1`, the inhibition was found to be 10.3%.

With `COc1ccc(Cl)cc1NS(=O)(=O)c1c(C)[nH]c(=O)[nH]c1=O`, the inhibition was -3.5%. `O=C(CN1C(=O)C2(SCC(=O)N2c2ccc(Cl)cc2)c2ccccc21)NCCc1ccccc1` (configuration not stated): the inhibition turned out to be 0.151%.
